According to PMC12040169 (PLOS Biology, 2025):
The list shows a part of the results.

These compounds were tested on T1, C. trachomatis L2/434/Bu expressing GFP (CTL2-GFP). Details: total inclusion area; 28.5 h, 10 µM; inhibitor.
T1 construct: L2/434/Bu GFP intracellular growth in HeLa cells
Set-up: species or system HeLa; C. trachomatis total inclusion area by high-content imaging, normalised to DMSO
In short: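 Post-fluorescence-read fixation, DNA staining with Hoechst and high-content imaging; GFP inclusion area and number per well, and nuclei counts, used as proxies for bacterial growth and host viability.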

Row | Structure (SMILES) | % of control remaining
1 | Cc1cc(NC(=O)c2ccc(S(=O)(=O)N3CCOCC3)cc2)nc2c1c(=O)oc1ccccc12 [CBK291134] | 104.801
2 | O=C(NC(Sc1ncccn1)C(=O)c1ccccc1)c1ccccc1 (stereo not drawn) [CBK025806] | 83.5281
3 | c1ncc(OC2CCNC2)nc1OCCN1CCOCC1 (stereo not drawn) [CBK077311T] | 105.72
4 | O=S(=O)(Nc1cccc2[nH]ccc12)c1ccc(F)cc1F [CBK153546] | 101.74
5 | COC(=O)c1cc(Cl)c2ccccc2n1 [CBK012428] | 103.188
6 | CCC(=O)OC1(C(=O)c2ccc(F)cc2)CCN(CCCC(c2ccc(F)cc2)c2ccc(F)cc2)CC1 [CBK025227C] | 35.3446
7 | CN1CCN(c2ccc(/C=c3\sc4nc5ccccc5n4c3=O)cc2[N+](=O)[O-])CC1 [CBK263048] | 82.1223
8 | N#Cc1ccc(Oc2ccc3c(c2)-c2cc(Oc4ccc(C#N)c(C#N)c4)ccc2S3(=O)=O)cc1C#N [CBK261151] | 87.174
9 | CC(=O)c1cccc(-c2ccc3c(c2)C(=O)NC2(CCN(C(=O)OC(C)(C)C)CC2)O3)c1 [CBK131969] | 77.7349
10 | O=C1c2ccccc2CN1c1nccs1 [CBK113184] | 95.9635
11 | Cc1onc(-c2ccccc2)c1C(=O)Nc1ccccc1N1CCCNCC1 [CBK038929T] | 91.6188
12 | COc1ccc(C2c3cc(OC)c(OC)cc3CC(=O)N2c2ccc(C(=O)O)cc2)cc1OC (stereo not drawn) [CBK296082] | 91.4407
13 | COc1ccc(S(=O)(=O)N2CCC(C(=O)Nc3ccccc3SC)CC2)cc1C [CBK267960] | 107.503
14 | c1ccc2c(c1)nnn2Cc1nnc2sc(-c3cnccn3)nn12 [CBK268393] | 112.362
15 | CC(C)S(=O)(=O)n1c(=O)n(Cc2ccc(S(C)(=O)=O)cc2)c2ccccc21 [CBK106529] | 97.2004
16 | COc1ccc(C(C)C)cc1-c1cn2ccnc2c(N(C)CCN(C)C)n1 [CBK066368] | 144.208
17 | Cc1cccc([C@@H]2CN(Cc3ccccc3)C[C@]23CCCCC(=O)N3)n1 [CBK283341] | 124.083
18 | O=C(O)CCn1cc(CN2CCOc3ccccc3C2)cn1 [CBK306507] | 51.8371
19 | O=C(O)c1cccc(-c2ccc(/C=C\c3nc(O)c([N+](=O)[O-])c(=O)[nH]3)o2)c1 [CBK267209] | 79.1188
20 | O=C(Cc1c[nH]cn1)N1CCN(C(=O)c2ccco2)CC1 [CBK144448] | 95.9333
21 | CC1CCCN(c2ncnc3c2[nH]c2ccccc23)C1 (stereo not drawn) [CBK287948] | 59.6401
22 | Cc1noc(C2(O)CCN(CCc3ccc(F)c(F)c3)C2)n1 (stereo not drawn) [CBK304753] | 101.018
23 | CCOC(=O)Cc1nc2ccccc2[nH]1 [CBK261674] | 99.4597
24 | c1ccc(COc2ccc(-n3cnnn3)cc2)nc1 [CBK288196] | 57.7495
25 | N#Cc1ccccc1N1CCN(c2cncc(-c3ccc(F)cc3F)n2)CC1 [CBK065708] | 74.871
26 | O=C1N(CCc2ccccc2)CC=CCC12CN(Cc1ccc3[nH]ccc3c1)CCO2 (stereo not drawn) [CBK286130] | 93.2344

Row | Structure (SMILES) | % of control remaining
27 | Cc1ccc(NC(=O)N2CCn3cccc3C2c2cccnc2)cc1 (stereo not drawn) [CBK287733] | 94.8119
28 | COc1ccccc1CN1CCc2[nH]c(=S)[nH]c(=O)c2C1 [CBK288495] | 82.3874
29 | COc1ccc(CN2CCN(S(C)(=O)=O)CC2)c(OC)c1OC [CBK074491] | 81.0946
30 | Cc1ccc(-c2nnn(CC(=O)N(CCO)C(C(=O)NC3CCCC3)c3ccc(F)cc3)n2)o1 (stereo not drawn) [CBK084756] | 96.5054
31 | CCN(CCCCC1NC(=O)NC1=O)Cc1ccncc1 (stereo not drawn) [CBK143967] | 100.076
32 | CCCCc1ccc(C(=O)CSc2nc(N)c(C#N)c(-c3ccc(O)cc3)c2C#N)cc1 [CBK261268] | 88.9262
33 | Cc1nc2ccccc2nc1CSc1nnc(Cc2ccccc2)n1-c1ccccc1 [CBK268360] | 99.7022
34 | CCn1c(SCC(=O)Nc2ccc(N3CCOCC3)cc2)nnc1-c1ccncc1 [CBK269765] | 96.5149
35 | COC(=O)C(CCSC)NC(=O)c1cccs1 (stereo not drawn) [CBK057972] | 46.4017
36 | Cc1ccc(S(N)(=O)=O)cc1NC(=O)c1ccc(S(=O)(=O)N(C)C)cc1 [CBK266050] | 126.243
37 | COc1ccc(C(C)C)cc1-c1cn2ccnc2c(NCc2ccco2)n1 [CBK037269] | 142.604
38 | O=C(O)c1cccc(NS(=O)(=O)c2ccc(F)cc2F)c1 [CBK155084] | 107.702
39 | CCOc1ccccc1C(=O)N1CCC(c2cc(C(=O)NC(C)C)c3ccccc3n2)C1 (stereo not drawn) [CBK285918] | 120.489
40 | O=C(NCCO)/C(=C\c1ccccc1)NC(=O)c1ccc(I)cc1 [CBK265162] | 106.973
41 | Cc1ccc(Cl)cc1-n1cc(-c2ccc(Cl)cc2)nn1 [CBK113045] | 100.629
42 | S=c1[nH]nc(CN2CCSCC2)n1-c1ccc(Cl)cc1 [CBK013868] | 123.223
43 | CC(=O)N[C@H]1CO[C@H]2[C@@H]1OC[C@@H]2n1nnnc1-c1ccccc1 [CBK289483] | 95.6221
44 | OCCN1CC2(CCN(Cc3ncc[nH]3)CC2)c2ccccc21 [CBK126763] | 108.709
45 | Cc1ccc(C(=O)N2CN(C(=O)CN(C)CCN(C)C)CC2(C)C)cc1 [CBK091460C] | 105.479
46 | CC(=O)NCCc1nc2ccccc2n1CCOc1ccc(Cl)cc1 [CBK269610] | 88.2026
47 | CNC(=O)CC1SC(NC2CC3C=CC2C3)=NC1=O (stereo not drawn) [CBK047491] | 80.6713
48 | Cc1cc(NS(=O)(=O)c2ccc(NC(=O)CCCOc3ccc(Cl)cc3Cl)cc2)no1 [CBK297145] | 25.8354
49 | COc1ccccc1NC(=O)NC(=O)C1CCN(C)CC1 [CBK034830] | 86.9128
50 | N/C(CS(=O)(=O)Cc1ccc(F)cc1)=N/O [CBK010956] | 39.9522
51 | c1cncc(CNc2nccnc2-c2ccsc2)c1 [CBK089314] | 88.0518
